Test results reported in publication PMC12040169 (PLOS Biology, 2025).
The other results are listed elsewhere or left out.

System: T1, C. trachomatis L2/434/Bu expressing GFP (CTL2-GFP)
T1 construct: L2/434/Bu GFP intracellular growth in HeLa cells
Set-up: species or system HeLa; C. trachomatis total inclusion area by high-content imaging, normalised to DMSO
Settings: total inclusion area; 28.5 h, 10 µM; inhibitor
Text: In this process, we also complemented the assay described above with an imaging-based readout (Fig 1B). After measurements of bulk GFP and resorufin fluorescence, cells were fixed, stained with the DNA dye Hoechst, and imaged at a high-content imaging platform to detect chlamydial inclusions (GFP) and host cell nuclei (Hoechst). The total area and number of inclusions in individual wells and the number of nuclei then served as additional proxies for chlamydial growth and host cell viability. […] MICs were calculated as described above.

Row | Structure (SMILES) | % of control remaining
1 | Cc1ccn2ncc(C(=O)N3CCCCCC3c3ccco3)c2n1 (stereo not shown) [CBK304015] | 60.9668
2 | c1cc(CCCOc2cc(N3CCCC3)ncn2)ccn1 [CBK115897] | 91.9782
3 | O=C(NC(c1ccc(F)cc1)c1ccc2ccccc2n1)C1CCN(CCCN2CCOCC2)CC1 (stereo not shown) [CBK148118] | 109.853
4 | N#CCCCN1CCC(Oc2nccnc2OC2CCCCC2)CC1 [CBK082871T] | 86.0338
5 | Cc1ccc(C#N)cc1S(=O)(=O)NC(=O)CC1CCOc2ccccc21 (stereo not shown) [CBK306476] | 52.0722
6 | CN(CC(=O)N1CCN(Cc2ccccc2)CC1)S(=O)(=O)c1ccc2ccccc2c1 [CBK267117] | 84.1814
7 | CSCCC(=O)N1CCC2(CCN(Cc3ccccc3)CC2)C1 [CBK136757] | 97.2469
8 | Nc1nnc(Sc2nc3cc(Cl)c(Cl)cc3nc2N2CCCC2)s1 [CBK115267] | 81.5014
9 | CN1CCN(c2cc(C(F)(F)F)c3scc(C(=O)NCCC4=CCCCC4)c3n2)CC1 [CBK028474] | 9.302
10 | O=C(NC(c1ccc(F)cc1)c1cnccn1)C1CCN(S(=O)(=O)c2cccc(Cl)c2)CC1 (stereo not shown) [CBK060013] | 117.551
11 | O=C(Nc1ccc(Cl)cc1)c1ccc(N2CCN(Cc3ccccc3)CC2)c([N+](=O)[O-])c1 [CBK264422] | 132.585
12 | COC1CCCN(Cc2cncn2C2CCCCC2)C1 (stereo not shown) [CBK306542] | 44.5061
13 | Cc1ccc(C(C)C(=O)N2CCC(O)(c3ccccn3)CC2)cc1 (stereo not shown) [CBK283787] | 95.0879
14 | Cc1nc2c(C(=O)NCCCN3CCCC3=O)cnn2c(C)c1Cc1cccnc1 [CBK162151] | 88.8398
15 | O=c1cc(CN2CCOCC2)oc2c(OCc3nnnn3C3CC3)cccc12 [CBK007813] | 50.023
16 | O=S(=O)(Cc1ccc(Cl)cc1Cl)N1CCOCC1 [CBK058967] | 54.3846
17 | CN1CCC(N(C)Cc2ccccc2[N+](=O)[O-])CC1 [CBK261565] | 100.366
18 | Cc1cc(Cl)cc(C)c1OCCN1CCNCC1 [CBK266057G] | 112.479
19 | CC(c1ccccc1)N1Cc2cccc(C(=O)O)c2C1=O (stereo not shown) [CBK291252] | 108.653
20 | Cc1nnc(SCc2nnc(-c3ccccc3)o2)n1Cc1ccccc1 [CBK269743] | 73.1584
21 | COCCNC(=O)N(CCC#N)C1CCCCC1 [CBK156358] | 96.2224
22 | O=C1CCc2cc(S(=O)(=O)Nc3ccccc3Cc3ccccc3)ccc2N1 [CBK286369] | 95.3544
23 | CCN1C(=O)c2cccc3c(S(=O)(=O)N4CCCC4C(=O)O)ccc1c23 (stereo not shown) [CBK267169] | 103.198
24 | O=C(COc1ccccc1)n1nc(-c2ccco2)nc1NCc1cccs1 [CBK269145] | 101.67
25 | CCOc1cccc(CNn2cnnc2)c1OCc1ccccc1 [CBK265824] | 72.5792
26 | CC(=O)NCCNC(=O)c1cnc(-c2ccc(Cl)cc2)c(-c2ccc(O)cc2)c1 [CBK036647] | 116.778

Row | Structure (SMILES) | % of control remaining
27 | Cc1cccc(C(=O)N[C@@H](C)Cn2nc3c(cc2=O)CCCC3)c1 [CBK284563] | 118.704
28 | O=C(Nc1cc(-c2nc3ncccc3o2)ccc1Cl)c1ccc2c(c1)OCCO2 [CBK264105] | 95.7683
29 | CC(C)(C)c1cc(CNCCS(=O)(=O)O)c(O)c(C(C)(C)C)c1 [CBK261098] | 91.1902
30 | Cc1nn(C)c(C)c1CN(C)S(=O)(=O)Cc1ccc(F)cc1 [CBK281590] | 71.2205
31 | CN(C)CCN(C)C(=O)Cc1csc(-c2cccc(Cl)c2)n1 [CBK282176] | 70.7906
32 | O=C(O)c1ccc(-c2cnc3ccccc3n2)cc1 [CBK288010] | 79.9617
33 | Cc1ncsc1CCN(C)C(C)C(=O)Nc1nccs1 (stereo not shown) [CBK307709] | 62.5363
34 | Cc1ccc(CC(=O)N2CC(=O)Nc3ccccc32)cc1 [CBK287670] | 62.9095
35 | COc1ccc(NC(=O)c2ccc(-c3nnn[nH]3)cc2)cc1Cl [CBK295139] | 100.835
36 | CCOc1cc(OCC)cc(C(=O)N2CCC3(CC2)CC(=O)c2cc(OCC)ccc2O3)c1 [CBK168013] | 111.934
37 | O=C(C1CCCN(CC(O)c2cccs2)C1)N1CCCCCC1 (stereo not shown) [CBK282117] | 89.5379
38 | COc1nccc(N2CCC3(CCC(=O)N(CCO)C3)CC2)c1C#N [CBK307255] | 67.2516
39 | O=C(CSc1nnc(SCc2cccc3ccccc23)s1)Nc1ccccc1C(F)(F)F [CBK267575] | 108.835
40 | COc1ccc(CNC(=O)N(C)C2CCN(C)C2)cc1OC (stereo not shown) [CBK156020] | 118.443
41 | Cc1cc(N)n(-c2nc3c(cnn3-c3ccc(C)c(C)c3)c(=O)[nH]2)n1 [CBK287646] | 86.5468
42 | Cc1oc(-c2cccc(Cl)c2)cc1C(=O)O [CBK045856] | 84.7626
43 | O=C(c1csc(-c2ccncc2)n1)N1CCN(c2ccccc2)CC1 [CBK288590] | 111.423
44 | CCOC(=O)CSc1nc2ccccc2nc1C(F)(F)F [CBK107200] | 54.6735
45 | COCOc1ccc(-c2nc(-c3cccnc3)cnc2N)cc1 [CBK063999] | 121.448
46 | Oc1nc(CSc2nnc(-c3ccncc3)n2-c2ccccc2)nc2ccccc12 [CBK264851] | 99.5667
47 | CN1CCN(NC(=O)C2C3C=CC(C3)C2C(=O)O)CC1 (stereo not shown) [CBK286915] | 106.309
48 | Cc1cc(NS(=O)(=O)c2ccc(N3CCOCC3)nc2)n(C)n1 [CBK067253] | 101.353
49 | c1ncc(N2CCCC2)nc1OC1CCOC1 (stereo not shown) [CBK115893] | 90.9275
50 | CCC(NC(=O)C(C)Cn1cccn1)c1ccc(F)cc1 (stereo not shown) [CBK283210] | 95.5374
51 | O=C(O)c1cc(S(=O)(=O)NCc2ccc(Cl)cc2Cl)ccc1O [CBK296924] | 69.9422
52 | O=C(c1ccc(-c2nccnc2NCc2ccc(C(F)(F)F)cc2)cc1)N1CCOCC1 [CBK036931] | 119.977
